# Test results as given in the supplement of paper PMC10037445.
# Over roughly 2,900 compounds, “NF-kB SEAP reporter activity, fold change vs agonist alone” has its median near 0.99; the highest 2% begin near 2.6. This is one part of the list.
# What was measured:
# RAW-Dual [1] = test: NF-kB SEAP reporter activity, fold change vs agonist alone; cytotoxicity flag (confluency mask): not cytotoxic; higher = enhanced NF-kB activity
# How it was run: (§1)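 RAW-Dual macrophages were seeded in DMEM at 50,000 cells/well in 384-well plates, given 50 nL of library stock by pin tool, and given a PRR agonist 1 h later. Plates were held at 37 °C, 5% CO2 for 20 hours, after which supernatant was read for IRF by QuantiLuc luminescence and for NF-κB by QuantiBlue absorbance at 620 nm. Reporter activity is expressed as fold change over wells that received agonist alone. A well was called cytotoxic when IncuCyte confluency fell below 70% of agonist controls in both mask sets.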
# RAW-Dual [2] = test: NF-kB SEAP reporter activity, fold change vs agonist alone; higher = enhanced NF-kB activity; conditions: library stock concentration (final ~1000-fold dilution): 10 mM
# How it was run: as §1
# RAW-Dual [3] = test: NF-kB SEAP reporter activity, fold change vs agonist alone; cytotoxicity flag (confluency mask): cytotoxic (confluency <70% of control); higher = enhanced NF-kB activity
# How it was run: as §1
# [4] = agonist: ODN 1826 (TLR9) 0.5 ug/mL
# [5] = agonist: Pam2CSK4 (TLR2/6) 0.1 ug/mL
# [6] = agonist: Pam3CSK4 (TLR2/1) 0.1 ug/mL
# [7] = cytotoxicity flag (confluency mask): not cytotoxic, agonist: MPLA (TLR4) […]
# [8] = cytotoxicity flag (confluency mask): not cytotoxic, agonist: Imiquimod (TLR7) […]
# [9] = cytotoxicity flag (confluency mask): cytotoxic (confluency <70% of control), agonist: MPLA (TLR4) […]
smiles,measurement,setting,value
COCCc1ccc(OCC(O)CNC(C)C)cc1.COCCc1ccc(OCC(O)CNC(C)C)cc1.O=C(O)CCC(=O)O (stereo unspecified) (library stock concentration (final ~1000-fold dilution): 10 mM),NF-kB SEAP reporter activity,RAW-Dual [1]; agonist: LPS (TLR4) 0.1 ug/mL,1.32
same,NF-kB SEAP reporter activity,RAW-Dual [1]; [4],0.801
same,NF-kB SEAP reporter activity,RAW-Dual [1]; [5],0.839
same,NF-kB SEAP reporter activity,RAW-Dual [1]; [6],0.868
COCCc1ccc(OCC(O)CNC(C)C)cc1.COCCc1ccc(OCC(O)CNC(C)C)cc1.O=C(O)CCC(=O)O (stereo unspecified),NF-kB SEAP reporter activity,RAW-Dual [2]; [7],1.03
CC1=C(C(=O)OC(C)C)C(c2cccc([N+](=O)[O-])c2)C(C(=O)OC2CN(C(c3ccccc3)c3ccccc3)C2)=C(N)N1 (stereo unspecified),NF-kB SEAP reporter activity,RAW-Dual [2]; [8],1.17
same,NF-kB SEAP reporter activity,RAW-Dual [2]; [7],1.09
CC1=C(C(=O)OC(C)C)C(c2cccc([N+](=O)[O-])c2)C(C(=O)OC2CN(C(c3ccccc3)c3ccccc3)C2)=C(N)N1 (stereo unspecified) (library stock concentration (final ~1000-fold dilution): 10 mM),NF-kB SEAP reporter activity,RAW-Dual [1]; agonist: LPS (TLR4) 0.1 ug/mL,0.329
same,NF-kB SEAP reporter activity,RAW-Dual [1]; [4],1.29
same,NF-kB SEAP reporter activity,RAW-Dual [1]; [5],0.583
same,NF-kB SEAP reporter activity,RAW-Dual [1]; [6],0.896
COc1cc(C(=O)NS(=O)(=O)c2ccccc2C)ccc1Cc1cn(C)c2ccc(NC(=O)OC3CCCC3)cc12,NF-kB SEAP reporter activity,RAW-Dual [2]; [8],0.997
same,NF-kB SEAP reporter activity,RAW-Dual [2]; [7],1.08
COc1cc(C(=O)NS(=O)(=O)c2ccccc2C)ccc1Cc1cn(C)c2ccc(NC(=O)OC3CCCC3)cc12 (library stock concentration (final ~1000-fold dilution): 10 mM),NF-kB SEAP reporter activity,RAW-Dual [1]; agonist: LPS (TLR4) 0.1 ug/mL,1.53
same,NF-kB SEAP reporter activity,RAW-Dual [1]; [4],1.09
same,NF-kB SEAP reporter activity,RAW-Dual [1]; [5],0.973
same,NF-kB SEAP reporter activity,RAW-Dual [1]; [6],0.906
COc1ccc(NC(=O)c2ccc(C(=N)N(C)C)cc2)c(C(=O)Nc2ccc(Cl)cn2)c1.O=C(O)/C=C\C(=O)O (library stock concentration (final ~1000-fold dilution): 10 mM),NF-kB SEAP reporter activity,RAW-Dual [1]; agonist: LPS (TLR4) 0.1 ug/mL,0.955
same,NF-kB SEAP reporter activity,RAW-Dual [1]; [4],0.994
same,NF-kB SEAP reporter activity,RAW-Dual [1]; [5],1.1
same,NF-kB SEAP reporter activity,RAW-Dual [1]; [6],1.06
COc1ccc(NC(=O)c2ccc(C(=N)N(C)C)cc2)c(C(=O)Nc2ccc(Cl)cn2)c1.O=C(O)/C=C\C(=O)O,NF-kB SEAP reporter activity,RAW-Dual [2]; [7],0.953
CCn1c(=O)c(-c2cc(NC(=O)Nc3ccccc3)c(F)cc2Br)cc2cnc(NC)cc21 (library stock concentration (final ~1000-fold dilution): 10 mM),NF-kB SEAP reporter activity,RAW-Dual [1]; agonist: LPS (TLR4) 0.1 ug/mL,0.404
same,NF-kB SEAP reporter activity,RAW-Dual [1]; [4],0.212
same,NF-kB SEAP reporter activity,RAW-Dual [1]; [5],0.0771
same,NF-kB SEAP reporter activity,RAW-Dual [1]; [6],0.143
CCn1c(=O)c(-c2cc(NC(=O)Nc3ccccc3)c(F)cc2Br)cc2cnc(NC)cc21,NF-kB SEAP reporter activity,RAW-Dual [2]; [8],0.182
same,NF-kB SEAP reporter activity,RAW-Dual [2]; [7],0.36
CN(C)CCCCC(=O)Nc1ccc(NC(=S)NC(=O)c2ccc(C(C)(C)C)cc2)cc1.Cl,NF-kB SEAP reporter activity,RAW-Dual [2]; [9],2.2
CN(C)CCCCC(=O)Nc1ccc(NC(=S)NC(=O)c2ccc(C(C)(C)C)cc2)cc1.Cl (library stock concentration (final ~1000-fold dilution): 10 mM),NF-kB SEAP reporter activity,RAW-Dual [3]; agonist: LPS (TLR4) 0.1 ug/mL,2.04
same,NF-kB SEAP reporter activity,RAW-Dual [3]; [4],0.456
same,NF-kB SEAP reporter activity,RAW-Dual [3]; [5],0.827
same,NF-kB SEAP reporter activity,RAW-Dual [3]; [6],0.635
C=CC1(C)CC(OC(=O)CSC(C)(C)CNC(=O)C(N)C(C)C)C2(C)C(C)CCC3(CCC(=O)C32)C(C)C1O.Cl (stereo unspecified) (library stock concentration (final ~1000-fold dilution): 10 mM),NF-kB SEAP reporter activity,RAW-Dual [1]; agonist: LPS (TLR4) 0.1 ug/mL,1.22
same,NF-kB SEAP reporter activity,RAW-Dual [1]; [4],0.971
same,NF-kB SEAP reporter activity,RAW-Dual [1]; [5],0.669
same,NF-kB SEAP reporter activity,RAW-Dual [1]; [6],0.845
C=CC1(C)CC(OC(=O)CSC(C)(C)CNC(=O)C(N)C(C)C)C2(C)C(C)CCC3(CCC(=O)C32)C(C)C1O.Cl (stereo unspecified),NF-kB SEAP reporter activity,RAW-Dual [2]; [8],0.86
same,NF-kB SEAP reporter activity,RAW-Dual [2]; [7],1.25
COc1ccc(CN(CCN(C)C)c2ccccn2)cc1.O=C(O)/C=C\C(=O)O,NF-kB SEAP reporter activity,RAW-Dual [2]; [8],1.53
same,NF-kB SEAP reporter activity,RAW-Dual [2]; [7],1.79
COc1ccc(CN(CCN(C)C)c2ccccn2)cc1.O=C(O)/C=C\C(=O)O (library stock concentration (final ~1000-fold dilution): 10 mM),NF-kB SEAP reporter activity,RAW-Dual [1]; agonist: LPS (TLR4) 0.1 ug/mL,1.2
same,NF-kB SEAP reporter activity,RAW-Dual [1]; [4],0.899
same,NF-kB SEAP reporter activity,RAW-Dual [1]; [5],1.24
same,NF-kB SEAP reporter activity,RAW-Dual [1]; [6],0.92
Cc1nc(Nc2ncc(C(=O)Nc3c(C)cccc3Cl)s2)cc(N2CCN(CCO)CC2)n1.Cl (library stock concentration (final ~1000-fold dilution): 10 mM),NF-kB SEAP reporter activity,RAW-Dual [1]; agonist: LPS (TLR4) 0.1 ug/mL,0.961
same,NF-kB SEAP reporter activity,RAW-Dual [1]; [4],0.779
same,NF-kB SEAP reporter activity,RAW-Dual [1]; [5],0.371
same,NF-kB SEAP reporter activity,RAW-Dual [1]; [6],0.173
Cc1nc(Nc2ncc(C(=O)Nc3c(C)cccc3Cl)s2)cc(N2CCN(CCO)CC2)n1.Cl,NF-kB SEAP reporter activity,RAW-Dual [2]; [7],1.14
Cl.O=C1Cc2cc(CCN3CCN(c4nsc5ccccc45)CC3)c(Cl)cc2N1,NF-kB SEAP reporter activity,RAW-Dual [2]; [8],0.412
same,NF-kB SEAP reporter activity,RAW-Dual [2]; [7],0.73
Cl.O=C1Cc2cc(CCN3CCN(c4nsc5ccccc45)CC3)c(Cl)cc2N1 (library stock concentration (final ~1000-fold dilution): 10 mM),NF-kB SEAP reporter activity,RAW-Dual [1]; agonist: LPS (TLR4) 0.1 ug/mL,0.912
same,NF-kB SEAP reporter activity,RAW-Dual [1]; [4],0.338
same,NF-kB SEAP reporter activity,RAW-Dual [1]; [5],0.746
same,NF-kB SEAP reporter activity,RAW-Dual [1]; [6],0.865
CC1(C)CC[C@]2(C(=O)O)[C@H](O)C[C@]3(C)C(=CC[C@@H]4[C@@]5(C)CC[C@H](O)C(C)(C)[C@@H]5CC[C@]43C)[C@@H]2C1,NF-kB SEAP reporter activity,"RAW-Dual [2]; cytotoxicity flag (confluency mask): cytotoxic (confluency <70% of control), agonist: Imiquimod (TLR7) […]",1.09
same,NF-kB SEAP reporter activity,RAW-Dual [2]; [9],0.979
CC1(C)CC[C@]2(C(=O)O)[C@H](O)C[C@]3(C)C(=CC[C@@H]4[C@@]5(C)CC[C@H](O)C(C)(C)[C@@H]5CC[C@]43C)[C@@H]2C1 (library stock concentration (final ~1000-fold dilution): 10 mM),NF-kB SEAP reporter activity,RAW-Dual [3]; agonist: LPS (TLR4) 0.1 ug/mL,0.961
same,NF-kB SEAP reporter activity,RAW-Dual [3]; [4],0.757
same,NF-kB SEAP reporter activity,RAW-Dual [3]; [5],0.983
same,NF-kB SEAP reporter activity,RAW-Dual [3]; [6],0.9
COc1ccc(Cc2cnc(N)nc2N)cc1OC,NF-kB SEAP reporter activity,RAW-Dual [2]; [7],1.09
COc1ccc(Cc2cnc(N)nc2N)cc1OC (library stock concentration (final ~1000-fold dilution): 10 mM),NF-kB SEAP reporter activity,RAW-Dual [1]; agonist: LPS (TLR4) 0.1 ug/mL,1.36
same,NF-kB SEAP reporter activity,RAW-Dual [1]; [4],1.01
same,NF-kB SEAP reporter activity,RAW-Dual [1]; [5],0.82
same,NF-kB SEAP reporter activity,RAW-Dual [1]; [6],0.946
Nc1ccccc1NC(=O)c1ccc(CNC(=O)OCc2cccnc2)cc1,NF-kB SEAP reporter activity,RAW-Dual [2]; [8],0.921
same,NF-kB SEAP reporter activity,RAW-Dual [2]; [7],1.06
Nc1ccccc1NC(=O)c1ccc(CNC(=O)OCc2cccnc2)cc1 (library stock concentration (final ~1000-fold dilution): 10 mM),NF-kB SEAP reporter activity,RAW-Dual [1]; agonist: LPS (TLR4) 0.1 ug/mL,1.22
same,NF-kB SEAP reporter activity,RAW-Dual [1]; [4],1.02
same,NF-kB SEAP reporter activity,RAW-Dual [1]; [5],1.07
same,NF-kB SEAP reporter activity,RAW-Dual [1]; [6],1.14
NC(=O)Cc1cccc(C(=O)c2ccccc2)c1N,NF-kB SEAP reporter activity,RAW-Dual [2]; [8],0.906
same,NF-kB SEAP reporter activity,RAW-Dual [2]; [7],1.02
NC(=O)Cc1cccc(C(=O)c2ccccc2)c1N (library stock concentration (final ~1000-fold dilution): 10 mM),NF-kB SEAP reporter activity,RAW-Dual [1]; agonist: LPS (TLR4) 0.1 ug/mL,1.2
same,NF-kB SEAP reporter activity,RAW-Dual [1]; [4],1.03
same,NF-kB SEAP reporter activity,RAW-Dual [1]; [5],1.05
same,NF-kB SEAP reporter activity,RAW-Dual [1]; [6],1.11
CC(C)NCC(O)c1ccc(NS(C)(=O)=O)cc1.Cl (stereo unspecified) (library stock concentration (final ~1000-fold dilution): 10 mM),NF-kB SEAP reporter activity,RAW-Dual [1]; agonist: LPS (TLR4) 0.1 ug/mL,0.93
same,NF-kB SEAP reporter activity,RAW-Dual [1]; [4],0.904
same,NF-kB SEAP reporter activity,RAW-Dual [1]; [5],0.933
same,NF-kB SEAP reporter activity,RAW-Dual [1]; [6],1.08
CC(C)NCC(O)c1ccc(NS(C)(=O)=O)cc1.Cl (stereo unspecified),NF-kB SEAP reporter activity,RAW-Dual [2]; [8],0.917
same,NF-kB SEAP reporter activity,RAW-Dual [2]; [7],0.978
CCCCCCCCC/C(=C\C1=C(C)C(=O)C(OC)=C(OC)C1=O)C(=O)O,NF-kB SEAP reporter activity,RAW-Dual [2]; [8],0.907
same,NF-kB SEAP reporter activity,RAW-Dual [2]; [7],0.852
CCCCCCCCC/C(=C\C1=C(C)C(=O)C(OC)=C(OC)C1=O)C(=O)O (library stock concentration (final ~1000-fold dilution): 10 mM),NF-kB SEAP reporter activity,RAW-Dual [1]; agonist: LPS (TLR4) 0.1 ug/mL,1.04
same,NF-kB SEAP reporter activity,RAW-Dual [1]; [4],0.868
same,NF-kB SEAP reporter activity,RAW-Dual [1]; [5],1.01
same,NF-kB SEAP reporter activity,RAW-Dual [1]; [6],0.87
